Laboratory results from patent publication US12186370 (CELGENE, dated 2025).
Blank lines part the entries; values can stand above or below the binder they belong to.

Legend:
[1] = target: T1, recombinant human GDF-11 (growth differentiation factor 11) (human) (UniProt O95390); experiment: cell-based or functional assay
T1 sequence (looked up): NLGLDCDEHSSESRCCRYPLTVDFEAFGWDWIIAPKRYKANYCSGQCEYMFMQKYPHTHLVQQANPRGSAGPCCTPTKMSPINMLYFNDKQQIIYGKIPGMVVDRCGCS

[2] = target: T2, recombinant human GDF-11 (growth differentiation factor 11) (human, UniProt O95390 299-407); experiment: cell-based or functional assay
T2 sequence (looked up): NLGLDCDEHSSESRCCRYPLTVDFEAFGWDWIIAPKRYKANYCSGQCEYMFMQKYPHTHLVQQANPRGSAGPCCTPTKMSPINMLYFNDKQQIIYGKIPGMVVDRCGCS

[3] = target: T3, ActIIB receptor on the cell surface of A204-CAGA12-Luc cells (human, UniProt Q13705 19-512); experiment: flow cytometry: staining for Product 1 on A204-CAGA12-Luc cells in the absence of GDF-11; the Product 1 concentration is not given
T3 construct: whole, on cells; the whole receptor stood on the cells; also called ActRIIB; activin receptor type IIB
T3 sequence (looked up): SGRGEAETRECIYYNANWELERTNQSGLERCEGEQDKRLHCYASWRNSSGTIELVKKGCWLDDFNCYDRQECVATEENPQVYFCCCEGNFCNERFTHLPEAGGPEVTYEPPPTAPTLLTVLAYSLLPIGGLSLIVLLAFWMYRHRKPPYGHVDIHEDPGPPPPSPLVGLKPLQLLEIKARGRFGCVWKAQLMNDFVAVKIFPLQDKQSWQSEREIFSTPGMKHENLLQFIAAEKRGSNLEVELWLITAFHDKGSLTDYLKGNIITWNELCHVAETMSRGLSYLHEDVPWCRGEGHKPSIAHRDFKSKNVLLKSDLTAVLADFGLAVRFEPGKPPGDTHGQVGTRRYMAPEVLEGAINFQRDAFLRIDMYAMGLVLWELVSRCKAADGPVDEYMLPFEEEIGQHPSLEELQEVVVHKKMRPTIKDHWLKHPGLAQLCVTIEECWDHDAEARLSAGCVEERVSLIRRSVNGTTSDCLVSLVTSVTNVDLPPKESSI

[4] = target: T4, GDF-11 bound to the cell surface of A204-CAGA12-Luc cells (GDF-11 in complex with ActIIB receptor) (human, UniProt O95390 299-407; Q13705 19-512); experiment: flow cytometry: staining for Product 1 on A204-CAGA12-Luc cells pre-incubated with a high concentration of GDF-11; concentrations are not given
T4 construct: Ligand already held by its receptor on cells; not free GDF-11; Other receptor chains of the complex (ActIB) are named only in passing; also called A204-CAGA12-Luc cell line pre-incubated with high, medium, or low concentrations of GDF-11
T4 sequence (looked up) 1: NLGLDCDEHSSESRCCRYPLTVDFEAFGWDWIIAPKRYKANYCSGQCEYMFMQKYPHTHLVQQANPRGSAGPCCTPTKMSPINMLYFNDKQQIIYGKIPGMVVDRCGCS
T4 sequence (looked up) 2: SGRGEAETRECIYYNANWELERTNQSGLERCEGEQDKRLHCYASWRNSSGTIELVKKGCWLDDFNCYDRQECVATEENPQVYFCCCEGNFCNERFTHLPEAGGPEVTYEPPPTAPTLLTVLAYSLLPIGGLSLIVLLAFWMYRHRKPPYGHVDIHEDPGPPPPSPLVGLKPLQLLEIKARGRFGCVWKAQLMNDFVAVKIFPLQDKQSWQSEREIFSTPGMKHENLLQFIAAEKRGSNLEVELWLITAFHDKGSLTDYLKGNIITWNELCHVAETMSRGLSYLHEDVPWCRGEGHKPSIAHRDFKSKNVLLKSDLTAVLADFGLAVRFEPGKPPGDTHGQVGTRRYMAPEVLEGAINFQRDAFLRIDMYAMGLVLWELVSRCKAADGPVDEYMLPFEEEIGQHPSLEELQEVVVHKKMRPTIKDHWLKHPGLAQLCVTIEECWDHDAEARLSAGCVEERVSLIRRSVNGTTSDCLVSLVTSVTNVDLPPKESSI

% Potency (reporter gene assay), high pH stress T4 [1]: 85%
% Potency (reporter gene assay), high pH stress T8 [1]: 100%
% Potency (reporter gene assay), high pH stress T12 [1]: 79%
% Potency (reporter gene assay), high pH stress T16 [1]: 79%
% Potency (reporter gene assay), high pH stress T22 [1]: 68%
B1: Product 1 under high pH stress (4 to 22 days) (Fc fusion)
chain: ETRECIYYNANWELERTNQSGLERCEGEQDKRLHCYASWRNSSGTIELVKKGCWDDDFNCYDRQECVATEENPQVYFCCCEGNFCNERFTHLPEAGGPEVTYEPPPTG[human IgG1 Fc and a few adjoining residues not spelt out]
modifications: Asn (including Asn272/277) deamidated in 32.4 to 75.4%; 3.6 to 10.4% LMWS (Table 11)

Potency (Relative to A10) (%), batch A1 [2]: 93%
Potency (Relative to A10) (%), batch A2 [2]: 88%
Potency (Relative to A10) (%), batch A3 [2]: 107%
Potency (Relative to A10) (%), batch A4 (PRSA4) [2]: 96%
Potency (Relative to A10) (%), batch A5 [2]: 95%
binding result [3]: no binding
binding result [4]: no binding
B2: Product 1 (ActRIIB-Fc fusion protein; modified extracellular domain of human ActRIIB with L79D linked to the human IgG1 Fc domain) (Fc fusion)
chain: ETRECIYYNANWELERTNQSGLERCEGEQDKRLHCYASWRNSSGTIELVKKGCWDDDFNCYDRQECVATEENPQVYFCCCEGNFCNERFTHLPEAGGPEVTYEPPPTG[human IgG1 Fc and a few adjoining residues not spelt out]
modifications: N- and O-glycosylated; C-terminal Lys clipped in about 95% of chains; low levels of pyroGlu, Pro amidation, Asn deamidation, Asp isomerization, Met oxidation, Lys glycation (Tables 2 and 3)
notes: 95% of chains lack it); also called ActRIIB ligand trap; ActIIB (L79D)-Fc

% Potency (reporter gene assay), 40° C., 7 days [1]: 78%
% Potency (reporter gene assay), 40° C., 14 days [1]: 66%
% Potency (reporter gene assay), 40° C., 21 days [1]: 63%
% Potency (reporter gene assay), 40° C., 28 days [1]: 46%
B3: Product 1 under heat stress (40° C., 7 to 28 days) (Fc fusion)
chain: ETRECIYYNANWELERTNQSGLERCEGEQDKRLHCYASWRNSSGTIELVKKGCWDDDFNCYDRQECVATEENPQVYFCCCEGNFCNERFTHLPEAGGPEVTYEPPPTG[human IgG1 Fc and a few adjoining residues not spelt out]
modifications: Asp (including Asp55/56/57) isomerized in 4.7 to 18.7% (Table 10)
